Some of the results follow. Shown are side measurements of this screen, not its main read-out; they come without a call. Compounds called inactive in the main read-out are mostly missing here.
experiment: growth inhibition of WT strain, primary screen, mitochondrial fusion inhibitor project, WT and mutant strains, chemical genetic (AID 1362); settings: mitochondrial fusion phenotypic screen, at 10 µM; note: tested in S. cerevisiae

Structure (SMILES) | inhibition [%]
COc1ccc(-n2cccc2/C=C/[N+](=O)[O-])cc1 | 58.8
COc1ccc(-c2csc(NC(=O)C3COc4ccccc4O3)n2)cc1OC (stereo not given) | 55.2
O=C(CCc1ccccc1)Nc1nnc(-c2ccc3c(c2)CCCC3)o1 | 0.5
CCC(=NCc1ccc(Cl)c(Cl)c1)c1nc(-c2ccco2)oc1O | 49
CCN1CCN(c2cc(-c3ccccc3)nc3cc(-c4cccc(F)c4)nn23)CC1 | 78.9
CC(C)(C)c1ccc(CSc2nnc(-c3ccccn3)n2Cc2ccco2)cc1 | 6.05
COc1ccc(CNc2oc(COc3ccc(Cl)cc3)nc2C#N)cc1 | 48.3
Cc1ccc(-c2nc(CSc3nc4ccccc4c(=O)n3CCO)cs2)cc1 | 23.5
O=[N+]([O-])c1ccc(S(=O)(=O)Nc2ccc(-c3csc(-c4ccccc4)n3)cc2)cc1 | 68.8
S=C(NCCc1ccccc1)N/N=C/c1ccccc1Cl | 26
COc1cccc(CC(=O)Nc2ccc3nc(C)sc3c2)c1 | 49.7
CCNC(=S)N/N=C(\C)c1ccc2ccccc2c1OC(F)F | 62.7
c1ccc(-c2ccc(C(c3ccccc3)n3ccnc3)cc2)cc1 (stereo not given) | 51.8
Cc1oc2ccc(OC(=O)c3cccs3)cc2c1C(=O)OC(C)C | 63.5
Cc1cc(C)cc(NC(=S)NCc2ccc3[nH]c4c(c3c2)CCCC4)c1 | 43.9
COc1ccc(C(=O)c2c(C(F)(F)F)oc3c2C(=O)c2ccccc2C3=O)cc1 | 85.4
Cc1cccc(CSCCNC(=S)Nc2ccccc2)c1 | 58.7
Cc1ccc(Nc2nc(N3CCN(C)CC3)nc(N)c2[N+](=O)[O-])cc1C | 63.8
Cc1ccc(-c2nc(N)sc2-c2ccccc2)cc1C | 48.5
Cc1ccc(CNCC(O)(c2ccccc2)c2ccc(F)cc2)cc1 (stereo not given) | 10.4
O=C(Nc1nnc(-c2ccc3c(c2)OCCO3)o1)c1ccc(Cc2ccccc2)cc1 | 32.4
COc1cccc2cc(C(=O)N3CCc4ccccc43)c(=O)oc12 | 1.39
OC(CSc1c(Cl)cccc1Cl)CN1CCN(c2ccccc2F)CC1 (stereo not given) | 54.7
COc1cccc(OCCN2CCN(c3ncnc4c3cnn4-c3ccccc3)CC2)c1 | 41.8
CN(NC(=S)Nc1ccc(OC(F)F)cc1)C(=S)Nc1ccc(OC(F)F)cc1 | 24.9
O=C(Nc1ccc(OC(F)F)cc1)Nc1cccc(C(F)(F)F)c1 | 63.7
S=c1[nH]nc(-c2ccccc2)n1/N=C/c1ccc(-c2ccccc2Cl)o1 | 10.5
OCCCc1nc2n(n1)C(c1cccs1)C=C(c1ccc(Br)cc1)N2 (stereo not given) | 29
CCN1/C(=C/c2ccc3cccc(C)c3[n+]2CC)Sc2ccccc21 | 60.2
O=C(OCC1OC2OC3(CCCCC3)OC2C2OC3(CCCCC3)OC12)c1ccccc1 (stereo not given) | 44

From PubChem BioAssay AID1362 (SRMLSC, 2008)
